{"source": "the supplement of paper PMC8728848", "binders": {"B1": {"name": "FGFR2-Fc (protein)", "chain": "MVNVTDAISSGDDEDDTDGAEDFVSENSNNKRAPYWTNTEKMEKRLHAVPAANTVKFRCPAGGNPMPTMRWLKNGKEFKQEHRIGGYKVRNQHWSLIMESVVPSDKGNYTCVVENEYGSINHTYHLDVVERSPHRPILQAGLPANASTVVGGDVEFVCKVYSDAQPHIQWIKHVEKNGSKYGPDGLPYLKVLKHSGINSSNAEVLALFNVTEADAGEYICKVSNYIGQANQSAWLTVLPKQQAPGREKEITASPDYLETRPLEQKLISEEDLAANDILDYKDDDDKV"}}, "test_in_all_cases": "glycan array binding signal (z-score within array); higher = stronger binding", "conditions_in_all_cases": "glycan notation: IUPAC condensed, linker removed", "key": {"Gal3S6S(b1-4)GlcNAc": {"biological_target": "Gal3S6S(b1-4)GlcNAc", "in_short": "(§1)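 Glycan array data were curated from 3228 arrays in the Consortium for Functional Glycomics database and kept only where the protein sequence was available. Glycan names were converted to IUPAC-condensed notation, and columns mapping to the same glycan were averaged. The binding signal is a within-array Z-score, averaged across arrays of the same protein sequence at different concentrations or buffers and across linkers. Negative Z-scores can be read as non-binding.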"}, "Gal3S6S(b1-4)GlcNAc6S": {"biological_target": "Gal3S6S(b1-4)GlcNAc6S", "in_short": "as §1"}, "Gal4S(b1-4)GlcNAc": {"biological_target": "Gal4S(b1-4)GlcNAc", "in_short": "as §1"}, "Gal4S6S(b1-4)GlcNAc": {"biological_target": "Gal4S6S(b1-4)GlcNAc", "in_short": "as §1"}, "Gal6P(b1-4)GlcNAc": {"biological_target": "Gal6P(b1-4)GlcNAc", "in_short": "as §1"}, "Gal6S(b1-3)GlcNAc": {"biological_target": "Gal6S(b1-3)GlcNAc", "in_short": "as §1"}, "Gal6S(b1-3)GlcNAc6S": {"biological_target": "Gal6S(b1-3)GlcNAc6S", "in_short": "as §1"}, "Gal6S(b1-4)Glc": {"biological_target": "Gal6S(b1-4)Glc", "in_short": "as §1"}, "Gal6S(b1-4)Glc6S": {"biological_target": "Gal6S(b1-4)Glc6S", "in_short": "as §1"}, "Gal6S(b1-4)GlcNAc": {"biological_target": "Gal6S(b1-4)GlcNAc", "in_short": "as §1"}, "Gal6S(b1-4)GlcNAc6S": {"biological_target": "Gal6S(b1-4)GlcNAc6S", "in_short": "as §1"}, "GalNAc(a1-3)Gal": {"biological_target": "GalNAc(a1-3)Gal", "in_short": "as §1"}, "GalNAc(a1-3)GalNAc": {"biological_target": "GalNAc(a1-3)GalNAc", "in_short": "as §1"}, "[1]": {"biological_target": "GalNAc(a1-3)GalNAc(b1-3)Gal(a1-4)Gal(b1-4)Glc", "in_short": "as §1"}, "[2]": {"biological_target": "GalNAc(a1-3)GalNAc(b1-3)Gal(a1-4)Gal(b1-4)GlcNAc", "in_short": "as §1"}, "GalNAc(b1-3)Gal": {"biological_target": "GalNAc(b1-3)Gal", "in_short": "as §1"}, "[3]": {"biological_target": "GalNAc(b1-3)Gal(a1-4)Gal(b1-4)GlcNAc", "in_short": "as §1"}, "[4]": {"biological_target": "GalNAc(b1-3)Gal(a1-4)Gal(b1-4)GlcNAc(b1-3)Gal(b1-4)Glc", "in_short": "as §1"}, "[5]": {"biological_target": "GalNAc(b1-3)Gal(a1-6)Gal(b1-4)Glc", "in_short": "as §1"}, "GalNAc(b1-3)GalNAc": {"biological_target": "GalNAc(b1-3)GalNAc", "in_short": "as §1"}, "GalNAc(b1-3)GlcNAc": {"biological_target": "GalNAc(b1-3)GlcNAc", "in_short": "as §1"}, "GalNAc(b1-4)Gal(b1-4)Glc": {"biological_target": "GalNAc(b1-4)Gal(b1-4)Glc", "in_short": "as §1"}, "GalNAc(b1-4)GlcNAc": {"biological_target": "GalNAc(b1-4)GlcNAc", "in_short": "as §1"}, "[6]": {"biological_target": "GalNAc(b1-4)GlcNAc(b1-2)Man", "in_short": "as §1"}, "[7]": {"biological_target": "GalNAc(b1-4)GlcNAc(b1-2)Man(a1-3)[GalNAc(b1-4)GlcNAc(b1-2)Man(a1-6)]Man(b1-4)GlcNAc(b1-4)GlcNAc", "in_short": "as §1"}, "[8]": {"biological_target": "GalNAc(b1-4)GlcNAc(b1-3)GalNAc(b1-4)GlcNAc", "in_short": "as §1"}, "GalNAc(b1-4)GlcNAc6S": {"biological_target": "GalNAc(b1-4)GlcNAc6S", "in_short": "as §1"}, "GalNAc(b1-6)GalNAc": {"biological_target": "GalNAc(b1-6)GalNAc", "in_short": "as §1"}, "GalNAc3S(b1-4)GlcNAc": {"biological_target": "GalNAc3S(b1-4)GlcNAc", "in_short": "as §1"}, "GalNAc3S(b1-4)GlcNAc3S": {"biological_target": "GalNAc3S(b1-4)GlcNAc3S", "in_short": "as §1"}, "[9]": {"biological_target": "GalNAc3S(b1-4)[Fuc(a1-3)]GlcNAc", "in_short": "as §1"}, "GalNAc4S6S(b1-4)GlcNAc": {"biological_target": "GalNAc4S6S(b1-4)GlcNAc", "in_short": "as §1"}, "GalNAc6S(b1-4)GlcNAc": {"biological_target": "GalNAc6S(b1-4)GlcNAc", "in_short": "as §1"}, "Glc(a1-4)Glc": {"biological_target": "Glc(a1-4)Glc", "in_short": "as §1"}, "[10]": {"biological_target": "Glc(a1-4)Glc(a1-4)Glc(a1-4)Glc", "in_short": "as §1"}, "Glc(a1-6)Glc(a1-6)Glc": {"biological_target": "Glc(a1-6)Glc(a1-6)Glc", "in_short": "as §1"}, "[11]": {"biological_target": "Glc(a1-6)Glc(a1-6)Glc(a1-6)Glc", "in_short": "as §1"}, "Glc(b1-4)Glc": {"biological_target": "Glc(b1-4)Glc", "in_short": "as §1"}}, "note": "This is one part of the list.", "data": [{"binder": "B1", "values": [{"measurement": "glycan array binding signal (z-score)", "setting": "Gal3S6S(b1-4)GlcNAc", "value": -0.096}, {"measurement": "glycan array binding signal (z-score)", "setting": "Gal3S6S(b1-4)GlcNAc6S", "value": 0.72}, {"measurement": "glycan array binding signal (z-score)", "setting": "Gal4S(b1-4)GlcNAc", "value": -0.328}, {"measurement": "glycan array binding signal (z-score)", "setting": "Gal4S6S(b1-4)GlcNAc", "value": 0.876}, {"measurement": "glycan array binding signal (z-score)", "setting": "Gal6P(b1-4)GlcNAc", "value": -0.234}, {"measurement": "glycan array binding signal (z-score)", "setting": "Gal6S(b1-3)GlcNAc", "value": 0.1}, {"measurement": "glycan array binding signal (z-score)", "setting": "Gal6S(b1-3)GlcNAc6S", "value": 0.179}, {"measurement": "glycan array binding signal (z-score)", "setting": "Gal6S(b1-4)Glc", "value": -0.195}, {"measurement": "glycan array binding signal (z-score)", "setting": "Gal6S(b1-4)Glc6S", "value": -0.39}, {"measurement": "glycan array binding signal (z-score)", "setting": "Gal6S(b1-4)GlcNAc", "value": -0.179}, {"measurement": "glycan array binding signal (z-score)", "setting": "Gal6S(b1-4)GlcNAc6S", "value": 0.231}, {"measurement": "glycan array binding signal (z-score)", "setting": "GalNAc(a1-3)Gal", "value": -0.191}, {"measurement": "glycan array binding signal (z-score)", "setting": "GalNAc(a1-3)GalNAc", "value": 0.149}, {"measurement": "glycan array binding signal (z-score)", "setting": "[1]", "value": -0.248}, {"measurement": "glycan array binding signal (z-score)", "setting": "[2]", "value": -0.267}, {"measurement": "glycan array binding signal (z-score)", "setting": "GalNAc(b1-3)Gal", "value": 0.647}, {"measurement": "glycan array binding signal (z-score)", "setting": "[3]", "value": 0.144}, {"measurement": "glycan array binding signal (z-score)", "setting": "[4]", "value": 0.337}, {"measurement": "glycan array binding signal (z-score)", "setting": "[5]", "value": -0.126}, {"measurement": "glycan array binding signal (z-score)", "setting": "GalNAc(b1-3)GalNAc", "value": -0.106}, {"measurement": "glycan array binding signal (z-score)", "setting": "GalNAc(b1-3)GlcNAc", "value": -0.683}, {"measurement": "glycan array binding signal (z-score)", "setting": "GalNAc(b1-4)Gal(b1-4)Glc", "value": -0.408}, {"measurement": "glycan array binding signal (z-score)", "setting": "GalNAc(b1-4)GlcNAc", "value": 0.087}, {"measurement": "glycan array binding signal (z-score)", "setting": "[6]", "value": -0.587}, {"measurement": "glycan array binding signal (z-score)", "setting": "[7]", "value": -0.322}, {"measurement": "glycan array binding signal (z-score)", "setting": "[8]", "value": -0.178}, {"measurement": "glycan array binding signal (z-score)", "setting": "GalNAc(b1-4)GlcNAc6S", "value": -0.578}, {"measurement": "glycan array binding signal (z-score)", "setting": "GalNAc(b1-6)GalNAc", "value": -0.692}, {"measurement": "glycan array binding signal (z-score)", "setting": "GalNAc3S(b1-4)GlcNAc", "value": -0.098}, {"measurement": "glycan array binding signal (z-score)", "setting": "GalNAc3S(b1-4)GlcNAc3S", "value": 0.364}, {"measurement": "glycan array binding signal (z-score)", "setting": "[9]", "value": 0.669}, {"measurement": "glycan array binding signal (z-score)", "setting": "GalNAc4S6S(b1-4)GlcNAc", "value": 0.263}, {"measurement": "glycan array binding signal (z-score)", "setting": "GalNAc6S(b1-4)GlcNAc", "value": -0.061}, {"measurement": "glycan array binding signal (z-score)", "setting": "Glc(a1-4)Glc", "value": -0.334}, {"measurement": "glycan array binding signal (z-score)", "setting": "[10]", "value": -0.11}, {"measurement": "glycan array binding signal (z-score)", "setting": "Glc(a1-6)Glc(a1-6)Glc", "value": -0.079}, {"measurement": "glycan array binding signal (z-score)", "setting": "[11]", "value": -0.474}, {"measurement": "glycan array binding signal (z-score)", "setting": "Glc(b1-4)Glc", "value": -0.66}]}]}
